# Reference: the RNAGym collection of RNA variant scans (doi:10.1073/pnas.2313332121)
# This sample is rich in variants without activity.
# B1: TPR 5TU (parent)
# chain: GGAUCUUCUCGAUCUAACAAAAAAGACAAAUCUGCCACAAAGCUUGAGAGCAUCUUCGGAUGCAGAGGCGGCAGCCUUCGGUGGCGCGAUAGCGCCAACGUUCUCAACUAUGACACGCAAAACGCGUGCUCCGUUGAAUGGAGUUUAUCAUG
# Variants of: B1
# Assay: polymerase ribozyme fitness, log enrichment relative to wild type (log ratio); higher = more active; in vitro selection for triplet polymerase activity
# Outline: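 Fitness is a logarithmic measure of how a genotype enriched relative to the wild type, with replicate averages weighted by inverse variance. The logarithm uses base 2, and enrichment came from Illumina sequencing of input and output libraries. Those libraries were PCR-built, transcribed mutants of each subunit of a heterodimeric triplet polymerase ribozyme, passed through one triplicate in vitro selection round that included frozen incubation at −7 °C, gel excision of extended constructs and streptavidin-bead capture. Genotypes were kept only if they had ≥10 input reads and ≥1 read per output.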
row,Variant,polymerase ribozyme fitness (log ratio)
1,C57A G59A G84U A97U C118G,-3.12
2,C57A C75A C87U C103G C125G,≤ -4.2
3,U56A G81U C93U G141C,-1.52
4,C57A C69U G74C G81C G86C C87U,≤ -4.2
5,U56G A60G A73G U90G A147C,≤ -4.2
6,U56C U78A C85U A89G G126U U144C,≤ -4.2
7,U56A G74C C105G,≤ -4.2
8,C57A G83C G94C A97U C131G,≤ -4.2
9,U56A G88U A107U G141C,≤ -4.2
10,C57U G81C A106U,-1.74
11,U56A G124C,-1.68
12,G58A G59C A60C C75G G84A U90A U148C,≤ -4.2
13,C57U G59C C93A U135G,≤ -4.2
14,C57U G67A C79G C85U A110C A150G,≤ -4.2
15,G58A U82C G83U C96G C105G,≤ -4.2
16,C57G G68A A91U C99U A115U U139A,≤ -4.2
17,C57U A73U G81U C85G C95G A106U A115C G136A,≤ -4.2
18,U56G C85G A115U,-3.43
19,U56A C87G,≤ -4.2
20,C57G C93A A113G A120C,-4.13
21,G58A G59U A73U C87G U104A A120G U148C,≤ -4.2

row,Variant,polymerase ribozyme fitness (log ratio)
1,G58A G70C C85A U102G C108A,≤ -4.2
2,C57A U90G C105U,≤ -4.2
3,C57A C76G,≤ -4.2
4,U56A G81A G83A A91C A121C G143U,≤ -4.2
5,G58C A150U,1.46
6,U56A C87A G112A G126U U134G,≤ -4.2
7,C57G C79U G84A A137U G143A,≤ -4.2
8,G58A G86U A98G U102C G143A U144G,≤ -4.2
9,G58A G86A,-1.63
10,U56A U101G C103G,≤ -4.2
11,U56C G133U,-4.01
12,C57A G86U A107U C108G,≤ -4.2
13,G58A G84A U104G G126U,-0.778
14,C57U A91G C108U,≤ -4.2
15,C57A C95A C96U G141A,-4.07
16,C57A C87G A89G C95U C116U,≤ -4.2
17,U56C G68C G92C C132A,≤ -4.2
18,U56C C93U U151G,≤ -4.2
19,G58A U77G G88A C103G A137U,≤ -4.2
20,G58A G68U C87G A142C,≤ -4.2
21,C57U G100U C149A,≤ -4.2

row,Variant,polymerase ribozyme fitness (log ratio)
1,C57U G81C C129U G141A,≤ -4.2
2,C57G A60U U61A C69U G70A C79U A142C C149U,≤ -4.2
3,G58C A60G A89G C108U A147C,≤ -4.2
4,U56A C96G,-0.228
5,G58A C72U C76G C99G A110C,≤ -4.2
6,C57G G94C C114G C118A,≤ -4.2
7,C57U A60U G68U C76U C93G C105U A110U U130C A137G,≤ -4.2
8,U56A G83U,-0.976
9,U56A G58C U61A G86U C87A G100U,≤ -4.2
10,G58C C76G U77G,≤ -4.2
11,U56C U90A C95U,≤ -4.2
12,C57G G58U C93A,-1.39
13,G58C A91U A97U,≤ -4.2
14,G58A C87G U101C A113U C131G,≤ -4.2
15,U56A G68A A73G A107U C108U G136U A137U,≤ -4.2
16,C57U C79A C132A A150C,≤ -4.2
17,U56A G126U,0.137
18,G58C A64C C69G C85U A110U U134G,≤ -4.2
19,U56A G117U A138C,≤ -4.2
20,U56A U61A U77G G84U A137G,≤ -4.2
21,U56G G92U,-2.1

row,Variant,polymerase ribozyme fitness (log ratio)
1,C57A G128C,-2.62
2,C57U U61A C103G A115U A137U,≤ -4.2
3,C57G C85U U104A U134C U151C,≤ -4.2
4,C57U G59U C96U C125G G143C U146C,≤ -4.2
5,C57U C118U U139C,≤ -4.2
6,C57G C75A C93A A113G A115U U145A,≤ -4.2
7,C57U G80A,-0.314
8,C57G U82A G83U G141U,-1.49
9,U56G G81A U104C U145C,-1.47
10,G58A G62A U78G C87A U104G A119G U148C,≤ -4.2
11,U56G G88C,≤ -4.2
12,C57U A60G U77A G80A G81U G133U,≤ -4.2
13,G58A G59U G65U C96G C105G,≤ -4.2
14,C57U G58C G70A G84C,≤ -4.2
15,C57G G140C,-4.08
16,G58C A91G C93U G100U,≤ -4.2
17,U56G G88A A119C,≤ -4.2
18,G58A A64C C85G C93G C96U U104G,≤ -4.2
19,U56C C79A G88C C125U,≤ -4.2
20,C57U C79A A110C,≤ -4.2
